The experiment has as its system Plasmodium falciparum. In words: Primary screen in NF54 nanoGlo assay, in single point, at 2uM, 72h; a lower Z score goes with more inhibition. It counts as functional, Erythrocyte. The settings on record: timepoint 72 hour.

Structures are written as SMILES. “And” between values parts separate entries of the source, which are not always exact repeats. Identical values can stand only once. Hit rate of the full screen: of about 150,000 compounds, about 540 (0.36%) showed an effect of 50% or more. Some of the results follow.

Usually % Inhibition stands for the relative decrease from the control value, in per cent. In the case of `CCC(=O)NCc1nc2c(n1C)CN(S(=O)(=O)c1c(C)noc1C)CC2`, the “% Inhibition” value is on record as -13% and the Z score is listed as 1.52.
In the same order, the values of `CO[C@H]1C[C@@H](N(C)C(=O)NCC2CCC(C#N)CC2)C1` (stereo not given in full) are 0% and -0.06.
Taken in the same sequence, the figures for `COC(=O)N1CCC[C@H]1C(=O)OCC(=O)N1CCCC1` were -12% and 1.47.
In the same order, the values of `CCc1c[nH]c2ncnc(N3CCC(N(C)C)C3C)c12` (stereo not given) are -7% and 1.46.
`C[C@H](NC(=O)Nc1cc(NS(C)(=O)=O)ccc1F)C1=CCCCC1`: the “% Inhibition” value is 10% and the Z score is given as -1.3.
Take `Cc1cccc(N2CCN(S(=O)(=O)c3cc4n(c3)CCCNC4=O)CC2)c1`: the “% Inhibition” value is -16% and the Z score was 1.9.
With `CCn1nc(C)nc1-c1ccc(F)c2cccnc12`, the “% Inhibition” value was -3% and the Z score was 0.55.
In the same order, the values of `CCc1c(C2CCN(C(=O)Nc3ccccc3C)CC2)noc1N` are -16% and 2.58.
In the same order, the values of `Cc1nscc1C(C)NCC1(C(O)C(C)C)CC1` (stereo not given) are -8% and 1.77.
In the same order, the values of `COc1ccccc1C(=O)N1CCc2cc(S(=O)(=O)NC3CCCC3)ccc21` are -1% and 0.17.
Consider `COc1nc(N(C)Cc2nc(C)cs2)ncc1Br`, for which the “% Inhibition” value is listed as -6% and the Z score amounted to 0.61.
Taken in the same sequence, the figures for `COc1cccc(N(C)S(=O)(=O)c2ccc3c(c2)CCCC3)n1` were -6% and 0.88.
In the same order, the values of `Cn1cncc1[C@H]1C[C@@H]1NC(=O)c1ccn(CC(F)(F)F)n1` are -7% and 0.87.
As to `O=C(NCc1ccco1)c1cccc(NS(=O)(=O)c2cccc(F)c2)c1`, the “% Inhibition” value was determined as 4% and the Z score is -0.82.
Taken in the same sequence, the figures for `CC(C)C[C@H]1C(=O)NCCN1Cc1cn2cccnc2n1` were -21% and 1.87.
Take `O=C(Nc1ccc2c(c1)OCO2)N1CCC(Oc2ccccn2)CC1`: the “% Inhibition” value is given as -11% and the Z score was found to be 2.
Taken in the same sequence, the figures for `CC(C)(C)c1ccc(C(=O)N2C[C@@H]3C[C@H]2C(=O)N3c2ccccc2F)cc1` were 15% and -1.99.
In the same order, the values of `CN(Cc1ccncc1)Cc1ccc(CO)o1` are -4% and 0.44.
On to `COCCS(=O)(=O)NCc1ccc(C(C)=O)c(C)n1`, for which the “% Inhibition” value was -1% and the Z score stood at 0.15.
Take `Cc1nc(C)c(CCNC(=O)N2CCC(c3c[nH]cn3)CC2)s1`: the “% Inhibition” value stood at 8% and the Z score is on record as -1.1.
In the same order, the values of `CC(C)CC[C@@]1(C2CC2)NC(=O)N(CCS(C)(=O)=O)C1=O` are -3% and 0.42.
In the same order, the values of `Cc1ccc(C(C)C)c(Oc2ccc(Cl)cc2NC(=O)c2cc(Cl)cc(Br)c2O)c1` are 33% and -3.71.
Taken in the same sequence, the figures for `CCCS(=O)(=O)N1CCN(C(CC)CC)CC1` were -8% and 0.99.
On to `Cc1cnn(CC(=O)N2CCN(c3oc(C4CC4)nc3C#N)CC2)c1`, for which the “% Inhibition” value is reported as -1% and the Z score stood at 0.13.
In the same order, the values of `O=C1C2C(c3ccccc3O)NC(Cc3c[nH]c4ccccc34)(C(=O)O)C2C(=O)N1c1ccc(Br)cc1` (stereo not given) are 0% and -0.07.
Taken in the same sequence, the figures for `CCNC(=O)N1CCN(c2cc(C)nc(-c3cccnc3)n2)CC1` were -9% and 1.61.
In the same order, the values of `O=C(c1ccccc1)c1conc1C(=O)c1ccccc1` are 2% and -0.28.
As to `c1ccc2sc(CCCn3cc(-c4cncnc4)nn3)nc2c1`, the “% Inhibition” value was -9% and the Z score came out at 1.17.
Consider `COc1cc(F)c(NC(=O)N2CCN(C(=O)[C@@H]3CCCN3C)CC2)cc1OC`, for which the “% Inhibition” value came to 1% and the Z score is -0.16.
On to `CC(C)CN1CCC(NC(=O)[C@H](C)c2cccnc2)CC1`, for which the “% Inhibition” value was -18% and the Z score is given as 2.44.
Consider `CCN(CC)CCNC(=O)c1cnn(-c2ncc3c(n2)-c2cc(OC)ccc2CC3)c1C`, for which the “% Inhibition” value was -2% and the Z score was determined as 0.39.
In the same order, the values of `Cc1ccc(C)c(CN2CC[C@H](CNC(=O)c3occc3C)C2)c1` are -19% and 3.61.
In the same order, the values of `CN(CC1CCCCO1)C(=O)C1CC(Cc2ccc(F)cc2)=NO1` (stereo not given) are -3% and 0.58.
As to `COCC[C@]1(NC(=O)c2ccc(F)cc2)CCN(Cc2ccc(Cl)cc2)C1`, the “% Inhibition” value is reported as -6% and the Z score is on record as 0.72.
Take `CNc1ncc(-c2ccc(CO)cc2)c(-c2ccc(C)cc2)n1`: the “% Inhibition” value was -15% and the Z score amounted to 2.86.
In the same order, the values of `OCC(CC1CC1)NC1CCC(c2ccccc2)C1` (stereo not given) are -2% and 0.3.
As for `O=S1(=O)c2ccccc2C(c2ccccc2)=NN1Cc1ccccc1Cl`, the “% Inhibition” value was -7% and the Z score is listed as 1.28.
In the same order, the values of `Cc1ccc(NC(=O)[C@H]2CC2(F)F)c(C)n1` are -13% and 2.49.
In the same order, the values of `Cc1[nH]ccc1C(=O)N1CCC2(CCC(=O)N(CCc3cccnc3)C2)CC1` are -13% and 2.48.
As for `O=C(CCc1ccccc1)N1CCC2(CC1)CN(C1CCC1)C[C@@H]2CO`, the “% Inhibition” value is -10% and the Z score is 1.12.
Take `Cc1n[nH]c(CNc2ncc(Cl)cn2)c1C`: the “% Inhibition” value was -21% and the Z score is recorded as 3.23.
In the same order, the values of `Cc1cc(C)c(C(=O)N2CC[C@]3(CCOC3)C2)[nH]1` are -1% and 0.16.
`O=C(COc1ccccc1)Nc1cnc(-c2cccnc2)nc1`: the “% Inhibition” value was -25% and the Z score came out at 2.19.
On to `COc1ccc(CN2C(=O)N[C@@H](CC(=O)N3CCc4ccccc4C3)C2=O)cc1`, for which, where the note is “2 µM”, the “% Inhibition” value was -19% and -8%; the Z score is 2.49 and 1.19.
For the molecule `Cc1cccc(O)c1NC(=O)C1=CCCCO1`, the “% Inhibition” value came to 0% and the Z score turned out to be 0.01.
Taken in the same sequence, the figures for `C[C@@](NC(=O)CCc1ccc(Cl)s1)(C(=O)O)C1CC1` were 2% and -0.25.
As to `NS(=O)(=O)c1ccc(NC2CCN(Cc3ccccc3)CC2)c(C(=O)O)c1`, the “% Inhibition” value is given as -8% and the Z score is 0.98.
In the same order, the values of `CCNC(=O)Nc1c[nH]nc1[C@H]1CCCN(c2ccnc(C3CC3)n2)C1` are -6% and 0.72.
In the same order, the values of `CCNc1ccnc(N2CCC3(CCC(=O)N(CCc4cccnc4)C3)CC2)n1` are -8% and 1.26.
Regarding `Cn1nc(-c2ccccc2Cl)cc1C(=O)NC1CCN(Cc2ccccc2)CC1`, the “% Inhibition” value is on record as -13% and the Z score stood at 1.85.
Taken in the same sequence, the figures for `CC(C)CNC(=O)N1CC[C@H](OCc2ccccc2)C1` were -5% and 0.81.
Taken in the same sequence, the figures for `COc1ccccc1CN(C)c1cc(N)nc(C)n1` were -8% and 0.8.
`C[C@@H](CCC(=O)NCCCc1nnc2ccccn12)N1CCOCC1`: the “% Inhibition” value is listed as -6% and the Z score was found to be 0.61.
Taken in the same sequence, the figures for `O=C(NCc1ccc(-c2ccn[nH]2)cc1)Nc1cccc(Cn2cccnc2=O)c1` were -7% and 1.23.
In the same order, the values of `Cc1cc(C)nc(-n2cc(C(=O)N3CCN[C@@H](C)C3)c(C(C)C)n2)n1` are 0% and -0.06.
